Hit rate of the full screen: of about 22,000 compounds, about 460 (2.1%) were called active. Inconclusive means that the source gave no clear call. Such entries were picked first, then a sample of the others.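 How the source made its calls: active means mean inhibition across valid replicates above about 65% (limit read from the data); inconclusive means mean under the limit, yet half or more replicates past it; inactive means the rest.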
Assay: Shh-driven Gli reporter inhibition – luminescence, Shh-LIGHT2 cells, Gli-luciferase, primary screen (AID 2313);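 further: pathway switched on by Shh-conditioned medium diluted 1 in 25 in low serum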
Conditions: 30 h, active compounds read high

SMILES	inhibition
CCOC(=O)c1csc(N)n1	inconclusive: 55.3%
C/C(=C\c1ccc(C(=O)O)cc1)c1ccc2c(c1)C(C)(C)CCC2(C)C	active: 66%
CC1=C(/C=C/C(C)=C/C=C/C(C)=C\C(=O)O)C(C)(C)CCC1	active: 82.4%
Cc1cc2c(C(C)C)c(O)c(O)c(C=O)c2c(O)c1-c1c(C)cc2c(C(C)C)c(O)c(O)c(C=O)c2c1O	inconclusive: 36.6%
O=C(/C=C/c1ccc(O)c(O)c1)O[C@@H]1C[C@](O)(C(=O)O)C[C@@H](O)[C@H]1O	inactive: -31.9%
CS(=O)(=O)c1ccc(C(=O)Nc2ccccc2Cl)cc1	inconclusive: 19.9%
CC12C=CC(=O)C=C1CCC1C2=CCC2(C)C1CC[C@@H]2C(=O)CN1CCN(c2cc(N3CCCC3)nc(N3CCCC3)n2)CC1 (stereo partly specified)	inconclusive: 50.3%
C[C@H](CO)N1C[C@H](C)[C@H](CN(C)S(=O)(=O)c2ccc(F)cc2)Oc2c(NC(=O)Nc3ccc(F)cc3)cccc2C1=O	active: 101%
C[C@@H]1CN([C@@H](C)CO)C(=O)Cc2cc(NC(=O)c3ccncc3)ccc2O[C@@H]1CN(C)Cc1ccc(Cl)c(Cl)c1	inconclusive: 57.8%
C/C=C/C/C=C/CCC(=O)[C@H]1O[C@H]1C(N)=O	active: 77.9%
Cc1ccc(S(=O)(=O)Nc2ccc3c(c2)CC(=O)N([C@H](C)CO)C[C@@H](C)[C@@H](CN(C)Cc2ccc(Oc4ccccc4)cc2)O3)cc1	inactive: 34.9%
C[C@@H]1CCCCO[C@H](CN(C)C(=O)C2CCCCC2)[C@@H](C)CN([C@H](C)CO)C(=O)c2cc(NC(=O)Cc3ccccc3)ccc2O1	inconclusive: 49.3%
O=c1[nH]ncc(NCC2CCCO2)c1Cl (stereo unspecified)	inconclusive: 28.6%
COc1cc(C2Oc3c(OC)cc(CCCO)cc3C2CO)ccc1O[C@H]1O[C@H](C)[C@@H](O)[C@H](O)[C@@H]1O (stereo partly specified)	inactive: -35.5%
C[C@@H]1CN([C@@H](C)CO)C(=O)Cc2cc(NC(=O)C3CCCCC3)ccc2O[C@@H]1CN(C)C(=O)NC1CCCCC1	inconclusive: 52.6%
Cc1noc(C)c1S(=O)(=O)N(C)C[C@H]1Oc2ccc(NC(=O)Cc3ccccc3)cc2CC(=O)N([C@H](C)CO)C[C@H]1C	inconclusive: 35.7%
C[C@H]1CN([C@@H](C)CO)C(=O)Cc2cc(NS(=O)(=O)c3ccc(Cl)cc3)ccc2O[C@@H]1CN(C)C(=O)Nc1ccc(C(F)(F)F)cc1	inconclusive: 29.2%
c1ccc2c(c1)NC(c1ccc3c(c1)CCO3)n1cccc1-2 (stereo unspecified)	inconclusive: 45.1%
CNC[C@@H]1Oc2ccc(NC(=O)NC(C)C)cc2CC(=O)N([C@@H](C)CO)C[C@@H]1C	inconclusive: 62.4%
Cc1noc(C)c1NC(=O)N(C)C[C@@H]1Oc2ccc(NS(=O)(=O)c3ccc(Cl)cc3)cc2CC(=O)N([C@H](C)CO)C[C@H]1C	inconclusive: 26.9%
Cc1ccc(S(=O)(=O)Nc2cccc3c2O[C@H](CN(C)C(=O)Nc2ccc(C(F)(F)F)cc2)[C@@H](C)CN([C@H](C)CO)C3=O)cc1	inconclusive: 61.3%

SMILES	inhibition
C[C@@H]1CN([C@@H](C)CO)C(=O)Cc2cc(NC(=O)Nc3ccc(C(F)(F)F)cc3)ccc2O[C@@H]1CN(C)C(=O)NC1CCCCC1	inactive: 24.1%
CCN(CC)CCCCCCCCOC(=O)c1cc(OC)c(OC)c(OC)c1	inconclusive: 51.4%
Cc1ccc(S(=O)(=O)N(C)C[C@@H]2Oc3c(NC(=O)Nc4ccc(C(F)(F)F)cc4)cccc3C(=O)N([C@H](C)CO)C[C@@H]2C)cc1	inconclusive: 48.3%
C[C@H]1CN([C@@H](C)CO)C(=O)c2cccc(NC(=O)c3nc4ccccc4s3)c2O[C@H]1CN(C)C(=O)NC1CCCCC1	inconclusive: 62.2%
COc1ccc(NC(=O)Nc2ccc3c(c2)CC(=O)N([C@@H](C)CO)C[C@H](C)[C@H](CN(C)Cc2ccc(Cl)c(Cl)c2)O3)cc1	inconclusive: 61.6%
CC(C)n1cnc2c(Nc3cccc(Cl)c3)nc(NCCO)nc21	active: 75.4%
CC(C)NC(=O)Nc1ccc2c(c1)CC(=O)N([C@@H](C)CO)C[C@H](C)[C@H](CN(C)Cc1ccc(Oc3ccccc3)cc1)O2	inconclusive: 35.7%
C=C1C(=O)O[C@@H]2/C=C(/CO)CC/C=C(/C)C[C@H](OC(=O)C(C)CO)[C@@H]12 (stereo partly specified)	inactive: 11.3%
O=c1c2ccccc2nc(SCc2ccc(F)cc2)n1-c1ccccc1	inconclusive: 52.8%
C[C@@H]1O[C@@H](O[C@H]2[C@@H]3C=CO[C@@H](O[C@@H]4O[C@H](CO)[C@@H](O)[C@H](O)[C@H]4O)[C@@H]3[C@@]3(CO)O[C@@H]23)[C@H](O)[C@H](OC(=O)/C=C/c2ccc(O)cc2)[C@H]1O	inconclusive: 44.7%
C=CCNC(=O)COc1ccc(Cl)cc1Cl	inactive: -56.4%
C[C@@H]1CCCCO[C@H](CN(C)S(=O)(=O)c2ccccc2)[C@@H](C)CN([C@H](C)CO)C(=O)c2cc(NC(=O)Nc3ccccc3)ccc2O1	inconclusive: 33.9%
N#C/C(=C\Nc1cc(C(F)(F)F)cc(C(F)(F)F)c1)S(=O)(=O)Cc1ccc(Cl)cc1	active: 107%
C[C@H](CO)N1C[C@H](C)[C@H](CN(C)S(=O)(=O)c2ccc(Cl)cc2)Oc2c(NS(=O)(=O)c3cccs3)cccc2C1=O	active: 77%
Cc1cc2c(c(Sc3ccc(Cl)cc3)n1)C(=O)NC2=O	inactive: -54.4%
C[C@H]1CN([C@@H](C)CO)C(=O)c2cccc(NC(=O)Nc3ccccc3)c2O[C@H]1CN(C)S(=O)(=O)c1ccc(Cl)cc1	active: 108%
C[C@@H]1CN([C@H](C)CO)C(=O)Cc2cc(NC(=O)Nc3ccccc3)ccc2O[C@@H]1CN(C)S(=O)(=O)c1ccc(Cl)cc1	inconclusive: 33.4%
C[C@H]1CN([C@@H](C)CO)C(=O)c2cccc(NC(=O)Nc3cccc4ccccc34)c2O[C@H]1CN(C)S(=O)(=O)c1ccc(F)cc1	inconclusive: 37.1%
C[C@H](CO)N1C[C@H](C)[C@H](CN(C)C(=O)Nc2ccc(F)cc2)Oc2c(NC(=O)NC3CCCCC3)cccc2C1=O	inconclusive: 35.8%
COc1cc2cc(C)nc(Cc3cccc4ccccc34)c2cc1OC	inconclusive: 53.1%
CNC[C@H]1Oc2ccc(NS(=O)(=O)c3c(C)noc3C)cc2CC(=O)N([C@@H](C)CO)C[C@@H]1C	inactive: -16.6%

SMILES	inhibition
C=C1C(C2(C)C=CC(=O)C(C)(C)C2CC(=O)OC)CC[C@@]2(C)[C@H](c3ccoc3)OC(=O)C3OC132 (stereo partly specified)	inconclusive: 58.1%
C[C@H](CO)N1C[C@H](C)[C@H](CN(C)C(=O)NC2CCCCC2)Oc2ccc(NC(=O)CCCN(C)C)cc2C1=O	inactive: -20.2%
COc1ccc(S(=O)(=O)N(C)C[C@@H]2Oc3c(NC(=O)Nc4ccc(F)cc4)cccc3C(=O)N([C@@H](C)CO)C[C@@H]2C)cc1	active: 85.6%
CNC[C@@H]1Oc2c(NC(=O)c3nc4ccccc4s3)cccc2C(=O)N([C@H](C)CO)C[C@@H]1C	inconclusive: 55.6%
CC1(C)CC[C@]2(C(=O)O)CC[C@]3(C)C(=CCC4[C@@]5(C)CC[C@H](OC6O[C@H](CO)[C@@H](O)[C@H](O[C@@H]7O[C@H](CO)[C@@H](O)[C@H](O)[C@H]7O)[C@H]6O)C(C)(C)C5CC[C@]43C)[C@@H]2C1 (stereo partly specified)	active: 107%
COc1ccc(S(=O)(=O)Nc2ccc3c(c2)CC(=O)N([C@@H](C)CO)C[C@H](C)[C@@H](CN(C)Cc2ccc(C(F)(F)F)cc2)O3)cc1	inactive: 29.6%
C[C@@H]1CN([C@@H](C)CO)C(=O)c2cc(NC(=O)Cc3cn(C)c4ccccc34)ccc2O[C@@H]1CN(C)Cc1ccccc1	inconclusive: 54.6%
C[C@H]1CN([C@@H](C)CO)C(=O)Cc2cc(NC(=O)CCN3CCOCC3)ccc2O[C@@H]1CN(C)S(=O)(=O)c1cccs1	inconclusive: 40.6%
COc1cccc2c1C(=O)c1c(O)c3c(c(O)c1C2=O)C[C@@](O)(C(=O)CO)C[C@@H]3OC1CC(N)C(O)C(C)O1 (stereo partly specified)	active: 83.3%
C[C@H]1CN([C@@H](C)CO)C(=O)c2cccc(NC(=O)C3CC3)c2O[C@@H]1CN(C)Cc1ccc(Oc2ccccc2)cc1	inconclusive: 58.8%
Cc1csc2sc(COC(=O)Nc3ccccc3)c(C)c12	inconclusive: 54.4%
CC1(C)CC(=O)C=C(SCC(=O)Nc2cc(C(F)(F)F)cc(C(F)(F)F)c2)S1	active: 92.1%
Cc1ccc(N=Cc2cc3ccccc3nc2Cl)cc1Cl	active: 88.6%
C[C@@H]1CN([C@H](C)CO)C(=O)c2cc(NS(=O)(=O)c3ccc(Cl)cc3)ccc2O[C@H]1CN(C)Cc1ccccc1	inactive: -2.58%
C[C@@H]1CN([C@H](C)CO)C(=O)Cc2cc(NS(=O)(=O)c3ccccc3)ccc2O[C@H]1CN(C)Cc1ccccc1	inactive: 16.8%
C[C@H](CO)N1C[C@H](C)[C@@H](CN(C)Cc2ccc(C(F)(F)F)cc2)Oc2c(NC(=O)c3ccc(-c4nccs4)cc3)cccc2C1=O	inconclusive: 48.4%
CCCN(C)C[C@@H]1OCCCC[C@@H](C)Oc2ccc(NS(=O)(=O)c3c(C)noc3C)cc2C(=O)N([C@H](C)CO)C[C@@H]1C	inactive: 35.2%
C[C@@H]1CCCCO[C@H](CN(C)C(=O)Nc2ccc(C(F)(F)F)cc2)[C@@H](C)CN([C@H](C)CO)C(=O)c2cc(NC(=O)Nc3ccc(C(F)(F)F)cc3)ccc2O1	inconclusive: 64.5%
CCCCCCCCC#CC#C/C=C/CCCC(=O)O	inconclusive: 55.5%

From PubChem BioAssay AID2313 (Broad Institute, 2010)
